Data taken from the RNAGym collection of RNA variant scans (doi:10.1073/pnas.2313332121).
Variants at the floor of the assay are shown more often than the library holds them.

B1: TPR 5TU (parent)
chain: GGAUCUUCUCGAUCUAACAAAAAAGACAAAUCUGCCACAAAGCUUGAGAGCAUCUUCGGAUGCAGAGGCGGCAGCCUUCGGUGGCGCGAUAGCGCCAACGUUCUCAACUAUGACACGCAAAACGCGUGCUCCGUUGAAUGGAGUUUAUCAUG

Variants of: B1
Assay: polymerase ribozyme fitness, log enrichment relative to wild type (log ratio); higher = more active; in vitro selection for triplet polymerase activity
In short: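 A single round of triplicate in vitro selection, including frozen incubation at −7 °C, was applied to PCR-built, transcribed mutant libraries of each subunit of a heterodimeric triplet polymerase ribozyme. Illumina sequencing of input and output libraries retained genotypes with ≥10 input reads and ≥1 read per output. Fitness is the base-2 logarithm of genotype enrichment divided by wild-type enrichment, from inverse-variance-weighted replicate averages.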

Polymerase ribozyme fitness (log ratio), -2.44:
GGAUCUUCUCGAUCUAACAAAAAAGACAAAUCUGCCACAUAGCUUGCGAGUAUCUUCGGAUGCAGAGGCGGCAGCCUUCGGCGGCGCGAUAGCGCCAACGUUCUCAACUAUGACACGGAAAACGCGUGCUCCGUUGAAUGGAGUUUAUCAUG [A40U A47C C51U U82C C118G]

Polymerase ribozyme fitness (log ratio), 0.0643:
GGAUCUUCUCGAUCUAACAAAAAAGACAAAUCUGCCACAUUGCUUAAGAGCAUCUUAGGAUGCAGAGGCGGCAGCCUUCGGUGGCGAGAUAUCGCCAACGUUCUCAACUAUGACACGCAAAACGCGUGCUCCGUUGAAUGGAGUUUAUCAUG [A40U A41U G46A C57A C87A G92U]

Polymerase ribozyme fitness (log ratio), ≤ -4.2:
GGAUCUUCUCGAUCUAACAAAAAAGACAAAUCUGCCACAGAGCUUGAGAGCAUCUUCGCAUGCAGGGGCGGCAGCCUUCGGUGGCGCCAUAGCGCCAACGUUCUCAACUAUGACACGCAAAACGCGUGCUCCGUUGAAUGGAGUUUAUCAUG [A40G G59C A66G G88C]
GGAUCUUCUCGAUCUAACAAAAAAGACAAAUCUGCCACAGAGCUUGAGAGCAUCUUCGCAUGCAGAGGCGGCAGCCUUCGGUGGCGUGAUAGCGCCAACGUUCUCAACUAUGACACGCAAAACGCGUGCUCCUUUGAAUCGAGUUUAUCAAG [A40G G59C C87U G133U G140C U151A]
GGAUCUUCUCGAUCUAACAAAAAAGACAAAUCUGCCACAGAGCUUGAGAGCAUCUUCGGAUGCACAGGCGGCAGCCUUCGGUGGCGCGAUUGCGCCAACGUUCUCAACUAUGACACGCAAAACGCGUGCUCCGUUGAAUGGAGUUUAUCAUG [A40G G65C A91U]
GGAUCUUCUCGAUCUAACAAAAAAGACAAAUCUGCCACAGAGCUUGAGAGCAUCUUCGGAUGCAUAGGCGGCAGCCUUCGGUCGCGCGAUAGCGCCAACGUACUCAACUAUGACACGCAAAACGCGUGCUCCGUUGAAUGGAGUUUAUCAUG [A40G G65U G83C U102A]
GGAUCUUCUCGAUCUAACAAAAAAGACAAAUCUGCCACAGAGCUUGAGAGCAUCUUCGGAUGCAGAGGCAGCAGCCUUCGGUGGCGCGAUAGCGCCAACGUUCUCAACCAUGACACGCAAAACGCGUGCUCCGUUGAAUGGAGUUUAUCAUG [A40G G70A U109C]
GGAUCUUCUCGAUCUAACAAAAAAGACAAAUCUGCCACAGAGCUUGAGAGCAUCUUCGGAUGCAGAGGCGACAGCCUUCGGUGGCGCGAUAGCGCCAACGUUCUCAACUAUGACACGCAAAACGCGUGCUCCGUUGGAUGGAGUUUAUCAUG [A40G G71A A137G]
GGAUCUUCUCGAUCUAACAAAAAAGACAAAUCUGCCACAGAGCUUGAGAGCAUCUUCGGAUGCAGAGGCGACAGCCUUCGGUGGCGCGAUAGCGCCAACGUUCUCAACUAUGACACGCAAAACGCGUACUCCGUUGAAUGGAGUUUAACAUG [A40G G71A G128A U148A]
GGAUCUUCUCGAUCUAACAAAAAAGACAAAUCUGCCACAGAGCUUGAGAGCAUCUUCGGAUGCAGAGGCGGCAACCUUCGGUGGCGCGCUAGCGGCAACGUUCUCAACUAUGACACGCACAACGCGUGCUCCGUUGAAUGAAGUUUAUCAUG [A40G G74A A89C C95G A120C G141A]
GGAUCUUCUCGAUCUAACAAAAAAGACAAAUCUGCCACAGAGCUUGAGAGCAUCUUCGGAUGCAGAGGCGGCAACCUUCGGUGGCUCGAUAGAGCCAACCUUCUCAGCUAUGACACGCAAAACGCGUGCUCCGUUGAAUGGAGUUUAUCAUG [A40G G74A G86U C93A G100C A107G]
GGAUCUUCUCGAUCUAACAAAAAAGACAAAUCUGCCACAGAGCUUGAGAGCAUCUUCGGAUGCAGAGGCGGCAGCCUUCAGUGGCGCGAUAGCACUAACGUUCUCAACUAUGACACGAAAAACGCGUGCUCCGUGGAAUGGAGUUUAUCAUG [A40G G80A G94A C96U C118A U135G]
GGAUCUUCUCGAUCUAACAAAAAAGACAAAUCUGCCACAGAGCUUGAGAGCAUCUUCGGAUGCAGAGGCGGCAGCCUUCCGUGGCGCGAGAGCGCCAACGUUCUCAACUAUGACACGCAAAACGCGUGCUCCGUUGAAUGGAGUUUAUCAUG [A40G G80C U90G]
GGAUCUUCUCGAUCUAACAAAAAAGACAAAUCUGCCACAGAGCUUGAGAGCAUCUUCGGAUGCAGAGGCGGCAGCCUUCGGUUGCGCGAUAGCGCCAACGUUCUCAACUAUGCCACGCAAAACGCUUGCUCCGUUGAAUGGAUUUUAUCAUG [A40G G83U A113C G126U G143U]
GGAUCUUCUCGAUCUAACAAAAAAGACAAAUCUGCCACAGAGCUUGAGAGCAUCUUCGGAUGCAGAGGCGGCAGCCUUCGGUGGCGCGAUACCGCCAACGUUCUCAACUAUGACACGCAAAACGCGUGCUCCGUUUAAUGGAGUUGAUCAUG [A40G G92C G136U U146G]
GGAUCUUCUCGAUCUAACAAAAAAGACAAAUCUGCCACAGAGCUUGAGAGCAUCUUCGGAUGCAGAGGCGGCAGCCUUCGGUGGCGCGAUAUCGCCAACGUUCUCAAUUAUGACACGCAAAACACGUUCUCCGUUGAAUGGAGUUUAUCAUG [A40G G92U C108U G124A G128U]
GGAUCUUCUCGAUCUAACAAAAAAGACAAAUCUGCCACAGAGCUUGAGAGCAUCUUCGGAUGCAGAGGCGGCAGCCUUCGGUGGCGCGAUAGCACCAACGUUCUCAACUAUGACUCGCAAAACGCGUGCUGCGUUGAAUGGAUUUUAUCAUG [A40G G94A A115U C131G G143U]
GGAUCUUCUCGAUCUAACAAAAAAGACAAAUCUGCCACAGAGCAUAAGAGCAUCUUCGCAUGCAGAGGCGGCAGCCUUCGGUGGCGCGAGAGCGCCAAAGUUCUCAACUAUGACACGCAAAACGCGUGCUCCGUUGAAUGGAGUUUAUCAUG [A40G U44A G46A G59C U90G C99A]
GGAUCUUCUCGAUCUAACAAAAAAGACAAAUCUGCCACAGAGCCUGAGAGCAUCUUCGGAUGCAGAGGCGGCAGCCUUCGGUGGCGCGAUAGCGCCAAUGUUCUCAACUAUGACACGCAAAACGCGUGCUCCGUUGAAUGGAGUUUAUCAUG [A40G U44C C99U]
GGAUCUUCUCGAUCUAACAAAAAAGACAAAUCUGCCACAGAGCGUGAGAGCAUCUUCGGAUGCAGAGCCGGCAGCCUGCGGUAGCGCGAUAGCGCCAACGUUCUCAACUAUGACGAGCAAAACGCGUGCUCCGUUGAAUGGAGUUUAUCAUG [A40G U44G G68C U78G G83A A115G C116A]
GGAUCUUCUCGAUCUAACAAAAAAGACAAAUCUGCCACAGAGCUAGAGAGUAUCUUCGGAUGCAUAGUCGGCAGCCUUCGGUAGCGCGAUAGCGCCAACGUUCUCAACUCUGAUACGCAAAACGCGUGCUCCGUUGAAUGGAGUUUAUCAUG [A40G U45A C51U G65U G68U G83A A110C C114U]
GGAUCUUCUCGAUCUAACAAAAAAGACAAAUCUGCCACAGAGCUAGAGAGCAUCUUCGGAUGCAGAGGCGGCAGCCUUCGGUGACGCGAUAGCGCCAACGUGCUCAACUAUGACACGCAAAACGCGUGCUCCGUUGAAUGGAGUUUAUCAUG [A40G U45A G84A U102G]
GGAUCUUCUCGAUCUAACAAAAAAGACAAAUCUGCCACAGAGCUUGAGAGCAACUUCGGAUGCAGAGGCGGCAGCCUUCGGUGGCGCGAUAGCGCAAACGUUCUCAACUAUGACACGCAAAACGCGUGCUCCGUUGCAUGAAGUUUAUCAUG [A40G U53A C96A A137C G141A]
GGAUCUUCUCGAUCUAACAAAAAAGACAAAUCUGCCACAGAGCUUGAGAGCAACUUCGGAUGCAGAGGCGGCAGCCUUCGGUGCCGCGAUAGCGACAACGUUCUCAACUAUGACACGCAAAACGCGUGCUCCGUUGAAUGGCGUUUAUCAUG [A40G U53A G84C C95A A142C]
GGAUCUUCUCGAUCUAACAAAAAAGACAAAUCUGCCACAGAGCUUGAGAGCAGUUUCGGAUGCAGAGGCGGCAACCUUCGGUGACGCGAUAUCGCCAACGUUCUCUACUAUGAUACGCAAAACACGUGCUCCGUUGAAUGGAGUUUAUCAUG [A40G U53G C54U G74A G84A G92U A106U C114U G124A]
GGAUCUUCUCGAUCUAACAAAAAAGACAAAUCUGCCACAGAGCUUGAGAGCAUCGACGGAUGCAGAGGCGGCAGCCUUCGGUGGCGCCAUAGCGCCAACGUUCUCAACUAUGACACGCAAAACGCGUGCUCCGUUGAAUGGAGUUUAUCAUG [A40G U55G U56A G88C]
GGAUCUUCUCGAUCUAACAAAAAAGACAAAUCUGCCACAGAGCUUGAGAGCAUCUACGGAUGCAGAAGCGGCAGCCUUCGGUAGCGCGAUAGCGCCAACGUUCUCAACUAUGACACGCAAAACGCGUGCUCCGUUGAAUGGAGUUUAUCAUG [A40G U56A G67A G83A]
GGAUCUUCUCGAUCUAACAAAAAAGACAAAUCUGCCACAGAGCUUGAGAGCAUCUGAGGAUGCAGAGGUGGCAGCCUUCGGUGGCGCGAUAGAGCCAGCGUUCUCAACUAUGACACGCAAAACGCGUGCUCCGUUGAAUGGAGUUUAUCAUG [A40G U56G C57A C69U C93A A98G]
GGAUCUUCUCGAUCUAACAAAAAAGACAAAUCUGCCACAGAGCUUGAGAGCAUCUUCGGAAGCAGAGGCGGCAGCCUUCGGUGGCGCGAUAGCGCCAACGUUCUCAACUAUGACACGCAAAACGCGUGCUCCGUUGAUUGGAGUUUAUCAUG [A40G U61A A138U]
GGAUCUUCUCGAUCUAACAAAAAAGACAAAUCUGCCACAGAGCUUGAGAGCAUCUUCGGAGGCAGAGGCGGCAGCCUUCGGUGGCGCGAUGGCUCCAACGUUCUCAACUAUGACACGCAAAACGCGUGCUCCGUUGAAUGGAGUAUAUCAUG [A40G U61G A91G G94U U145A]
GGAUCUUCUCGAUCUAACAAAAAAGACAAAUCUGCCACAGAGCUUGAGAGCAUCUUCGGAUGCAGAGGCGGCAGCCUUCGGUGGCGCGAAAGCGCCAACGUUCUCAACUAUGACACGCAAAACGCGUGCUCCGUUGAAUGGAGUUUAUCAUG [A40G U90A]
GGAUCUUCUCGAUCUAACAAAAAAGACAAAUCUGCCACAUGGCUUGAGUGCAUCUCCGGAGGCAGAGGCGGCAGCCUUCGGUAGCUCGAUAGCGCCAACGUUCUCAACUAUGACACGCAAAACGUGUGCUCCGUUGAAUGGAGUUUAUCAUG [A40U A41G A49U U56C U61G G83A G86U C125U]
GGAUCUUCUCGAUCUAACAAAAAAGACAAAUCUGCCACAUGGCUUGAGAGCCUCAUCGGAUGCAGAGGCGGCAGCCUACGGUGGCGCGAUAGUGCCAACGUUCUCAACUAUGACACGCAAAACGCGUGCUCCGUUGAACGGAGUUCAUCAUG [A40U A41G A52C U55A U78A C93U U139C U146C]
GGAUCUUCUCGAUCUAACAAAAAAGACAAAUCUGCCACAUAGCUUGGGAGCAUCUUCGGGUGCAGAGGCGGCAGCCUUCGGUGGCGGGAUGACGCCAACGUUCUCAACUAUGACACGCAAAACGCGUGCUCCGUUGAAUGGAGUUUAUCAUG [A40U A47G A60G C87G A91G G92A]
GGAUCUUCUCGAUCUAACAAAAAAGACAAAUCUGCCACAUAGCUUGAGCGCAUCUUCGGGUGCAGAGGCGGCAGCCUUCGGUGGGGCGAUAGCGCCAACGUUGUCAACUAUGAUGCGCAAAACGCGUGCUCCGUUGAAUGGAGUUUAUCAUG [A40U A49C A60G C85G C103G C114U A115G]
GGAUCUUCUCGAUCUAACAAAAAAGACAAAUCUGCCACAUAGCUUGAGCGUAUCUUCGGAUGCAGAGGGGGCAGCCUACGGUGGCGCGAUAGCGCCAACGUUCUCAACUAUGACACACAAAACGCGUGCUCCGUUGAAUGGAGUUUAUCAUG [A40U A49C C51U C69G U78A G117A]
GGAUCUUCUCGAUCUAACAAAAAAGACAAAUCUGCCACAUAGCUUGAGCGCAUGUUCGGAUGCAGAGGCCGCAGCCUUCGGUGGCGCGAUAGCGGCAACGUUCUCAACUAUGACACGCAAAACGCUUGCUCCGUUGUAUGGAGUUUAUCAUG [A40U A49C C54G G70C C95G G126U A137U]
GGAUCUUCUCGAUCUAACAAAAAAGACAAAUCUGCCACAUAGCUUGAGAGCGUCUUCGGAUGCAGAGGCGGCAGCCUUCGGUGGCGCGAUAGCACCAACGUUUUCAAGUAUGACACGCAAAACGCGUGCUCCGUUGAAUGGAGUUUAUCAUG [A40U A52G G94A C103U C108G]
